The source of these data is PubChem BioAssay AID485344 (National Center for Advancing Translational Sciences (NCATS), 2010).

Hit rate of the full screen: of about 340,000 compounds, about 6,900 (2%) were called active. No stated cut-off is given here; in the data, active means inhibition above about 30%; inactive means below that, where a call was filed. The list shows a part of the results, in another mix than the full data. Entries without a call were filed so in the source.

For this assay, the target named is D(2) dopamine receptor (Homo sapiens) (UniProt P14416). Put plainly: HTS Assay for Allosteric Antagonists of the Human D2 Dopamine Receptor: Primary Screen for Antagonists. Further: 0% is about no effect. As to conditions: HEK293 TREx D2 cells, calcium flux, dopamine EC80; at 10 µM; stronger effect = higher value. The method in brief: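 In this primary screen, negative modulation is detected by tracking calcium flux after an EC80 dopamine challenge in inducible HEK293 T-REx D2 cells preexposed to test compound for 180 s.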
Chain of UniProt P14416 (P14416 whole entry, looked up): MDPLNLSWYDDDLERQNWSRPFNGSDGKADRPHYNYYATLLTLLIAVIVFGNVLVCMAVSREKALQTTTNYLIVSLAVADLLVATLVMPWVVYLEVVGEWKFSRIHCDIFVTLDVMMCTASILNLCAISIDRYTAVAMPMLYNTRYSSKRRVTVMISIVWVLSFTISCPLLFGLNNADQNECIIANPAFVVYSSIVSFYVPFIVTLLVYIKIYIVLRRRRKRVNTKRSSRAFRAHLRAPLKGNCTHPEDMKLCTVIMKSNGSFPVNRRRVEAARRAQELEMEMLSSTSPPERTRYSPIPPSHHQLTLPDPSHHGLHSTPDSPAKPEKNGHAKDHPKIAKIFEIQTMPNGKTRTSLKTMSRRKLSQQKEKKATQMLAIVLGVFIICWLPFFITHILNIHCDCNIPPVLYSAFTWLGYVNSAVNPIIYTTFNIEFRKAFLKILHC
Usually inhibition stands for the relative decrease from the control value, in per cent. On to `Cc1ccc(CNC(=O)CCCn2c(=O)c3ccccc3n(Cc3ccc(Cl)cc3)c2=O)cc1`, for which the inhibition is 5.45%. As for `Cc1ccc(CNC(=O)CCC(=O)N2CCSc3ccccc32)cc1`, the inhibition is -18.5%. Turning to `COc1ccc(CCNC(=O)Cn2cc(C(=O)c3ccc(F)cc3)c(=O)c3ccc(C)nc32)cc1OC`, the inhibition is 2.1%. Take `CCOc1ccc(-c2noc(CSc3nnc(Cc4ccccc4)n3-c3cccc(C)c3)n2)cc1`: the inhibition was -2.31%. For `Cc1ccc(-c2nc3cc(C(C)C)ccc3o2)cc1NC(=O)c1cc([N+](=O)[O-])ccc1N1CCOCC1`, the inhibition was -1.29%.

With `S=C(Nc1cc(Cl)cc(Cl)c1)NC1CCN(Cc2ccccc2)CC1`, the inhibition was active: 72.2%.

`COc1ccc(OC)c(/C=C/C(=O)N(C)CC(=O)Nc2ccc(N3CCOCC3)cc2)c1`: the inhibition is active: 40.4%. Turning to `COCCCNC(=O)C1CCCN(c2nn3cc(-c4ccc(C)cc4)nc3s2)C1` (stereo unspecified), the inhibition stood at 3.69%. In the case of `CC(C)(C)C(=O)Cn1c(=O)n(-c2ccc(Cl)c(Cl)c2)c(=O)c2c3c(sc21)CCCC3`, the inhibition was -12.9%. With `CS(=O)(=O)N1CCC(C(=O)N2CCN(c3ccccc3)CC2)CC1`, the inhibition was active: 47.3%. For the molecule `Cc1ccc(OCCNC(=O)CCNS(=O)(=O)c2ccc(C)cc2)cc1`, the inhibition is active: 30.3%. Consider `COCc1cc(C)nc2sc(C(=O)Nc3cc(C)ccc3F)c(N)c12`, for which the inhibition is -2.55%. In the case of `COc1cc(Cl)c(C)cc1NC(=O)c1cnc2c(-c3cccc(C)c3)c(C)nn2c1C`, the inhibition came to 14%. For the molecule `Cc1ccsc1CN1CCc2nc(N3CCN(c4ccccc4F)CC3)ncc2C1`, the inhibition was -17.3%. Next, `CNC(=O)c1ccc(CSc2nc3ccncc3n2Cc2ccc(C)cc2)cc1`: 13.1%; `CCCN(C(=O)Cn1cc(S(=O)(=O)N2CCN(c3ccccc3F)CC2)c2ccccc2c1=O)c1cccc(C)c1`: 6.5%. For the molecule `COc1cccc(CNC(=O)Cn2c(C)c3cnn(-c4ccccc4)c(=O)c3c2C)c1`, the inhibition stood at 4.12%.

As for `CCOc1ccc(OCC)c(Nc2nc3ccc(Cl)cc3n3cnnc23)c1`, the inhibition is -1.4%. `CNC(=O)C1CCN(c2nc3ccccc3nc2C(F)(F)F)CC1`: the inhibition amounted to 3.4%. Regarding `CCc1ccc(NC(=O)N2CCN(C(=O)c3nsc4ccccc34)CC2)cc1`, the inhibition was -4.97%. Turning to `O=C(Nc1ccc(C(F)(F)F)cc1)N1CCC(N2CCCCC2)CC1`, the inhibition was 2.39%. Next, `Cc1ccccc1CN1CCCN(CC(=O)Nc2ccc3c(c2)OCCO3)S1(=O)=O`: 11.1%; `COC(=O)c1cc(NC(=O)c2ccc(-c3ccc(Cl)cc3Cl)o2)cc(C(=O)OC)c1`: 1.05%; `Cc1cccc(Cn2nnc3c(=O)[nH]c(C4CCN(C(=O)c5ccc(F)cc5)CC4)nc32)c1`: -1.96%. In the case of `CCOC(=O)c1noc2nc(C)n(Cc3ccc([N+](=O)[O-])cc3)c(=O)c12`, the inhibition is -28.6%. Next, `CN1CCN(C(CNC(=O)c2ccccc2)c2ccc3c(c2)OCO3)CC1` (stereo unspecified): 0.966%; `CCOc1ccc(NC(=O)c2c(NC(=O)c3cccs3)sc3c2CCC(C(C)(C)C)C3)cc1` (stereo unspecified): -28.2%. For `COc1ccccc1NC(=O)c1cc(S(=O)(=O)NCCC2=CCCCC2)ccc1F`, the inhibition was -13.9%. For `O=C(NCc1cccc(Cl)c1)C1CCCN(c2ncnc3onc(-c4ccc(F)cc4)c23)C1` (stereo unspecified), the inhibition is -2.87%. With `CCn1c(=O)cc(SCC(=O)N2CCN(c3ccccc3F)CC2)c2ccccc21`, the inhibition was -9.86%. With `Cc1ccc2oc(-c3cc(NC(=O)/C=C/c4ccco4)ccc3Cl)nc2c1`, the inhibition was 8.83%. In the case of `COc1cc2c(cc1OC)C(COc1ccc3c(C)cc(=O)oc3c1)N(C(=O)CC(C)C)CC2` (stereo unspecified) it was 12.3%; in that of `CC(=O)Nc1nonc1-c1nc2ccccc2n1Cc1ccccc1Br`, -5.75%; in that of `Brc1ccc2nc(SCCOc3ccccc3)[nH]c2c1`, -17.6%. `Cc1ccc2c(c1)N(C(=O)Nc1cccc3c1CCCC3)CC(C)O2` (stereo unspecified): the inhibition is -8.59%.

In the case of `Cc1cccc(-n2c(-c3ccco3)nc3nc4ccccc4nc32)c1`, the inhibition was active: 69.6%. As for `Nc1c(C(=O)Nc2cccc(C(F)(F)F)c2)c2ccccn2c1C(=O)c1ccccc1`, the inhibition was -10.6%. On to `COc1ccc(OC)c(CN2CCN(C(=O)c3ccc(F)cc3)CC2)c1`, for which the inhibition was active: 41.2%. For the molecule `O=C(CSc1nnc2[nH]c(=O)cc(-c3ccccc3)n12)Nc1cc(C(F)(F)F)ccc1Cl`, the inhibition is -6.94%. Consider `CCOc1ccc(NC(=O)CN(C)S(=O)(=O)c2cnc[nH]2)cc1`, for which the inhibition is 8.93%. Turning to `Cc1nc2ccccc2c(C)c1C(=O)c1ccccc1`, the inhibition is active: 30.1%. In the case of `COc1ccc(NC(=O)NC(C)c2c(-n3cccc3)sc3c2CCN(C)C3)c(OC)c1` (stereo unspecified) it was -7.34%; in that of `Cc1nnc(SCc2ccc(Cl)cc2)c2cc3occc3n12`, -4.25%; in that of `Cc1cccc(N2CCN(c3cc(C)nc4c(-c5ccc(Cl)cc5)c(C)nn34)CC2C)c1` (stereo unspecified), -0.924%. Consider `OC(COc1ccccc1)CN1CCC(Cc2ccccc2)CC1` (stereo unspecified), for which the inhibition is active: 74.4%. Turning to `O=C(CCN1C(=O)CSc2ccccc21)Nc1ccc(C(F)(F)F)cc1`, the inhibition is active: 88.1%. Regarding `CCCNc1ncnc2onc(C)c12`, the inhibition is 0.716%. `Cc1ccc(C(=O)n2nc(C)c(S(=O)(=O)N3CCOCC3)c2C)cc1`: the inhibition was -26.9%. Turning to `COc1ccc(-n2nc(C(=O)Nc3ccccc3OC)c3c4ccccc4n(C)c3c2=O)cc1Cl`, the inhibition is 1.87%. On to `CC(C)c1cnc2c(c1SCC(=O)Nc1ccccc1C(F)(F)F)c(=O)n(C)c(=O)n2C`, for which the inhibition worked out at 1.38%. In the case of `Cc1ccc(CSc2nc(-c3cccs3)ccc2C#N)cc1`, the inhibition amounted to 5.32%. For `COc1cccc(-c2nn(C)c3sc(C(=O)NCCc4ccc(Cl)cc4)cc23)c1`, the inhibition amounted to 0.707%. Turning to `O=C(CCC(=O)OCC(=O)c1ccc(Cl)cc1)Nc1ccc(Oc2ccccc2)cc1`, the inhibition amounted to 9.25%. `CCCn1cc(S(=O)(=O)c2cc(C)ccc2C)c(=O)c2cc(F)c(N3CCOCC3)cc21`: the inhibition was 8.49%.

For `CCc1ccc2occ(CC(=O)Nc3c(C(=O)Nc4ccc(C)cc4)oc4ccccc34)c2c1`, the inhibition was -2.5%. As for `CC(C)=CCN1CCN(Cc2c[nH]c3ccccc23)CC1CCO` (stereo unspecified), the inhibition was active: 47.3%.

As to `Cc1ccc(-n2nnnc2CNC(=O)c2ccccc2S(C)(=O)=O)cc1C`, the inhibition is 15.3%.

With `FC(F)(F)c1cc(-c2ccccc2)nc2cc(-c3ccc(Br)cc3)nn12`, the inhibition is 2.73%.

Consider `Cc1cccc(C(=O)NC2CCN(CC(=O)NCc3ccccc3F)CC2)c1`, for which the inhibition was active: 41.6%. In the case of `COc1ccc(-c2cn3nc(N4CCCC(C(=O)Nc5ccc(C)c(C)c5)C4)sc3n2)cc1` (stereo unspecified) it was -15.1%; in that of `O=C(Nc1cc2c(cc1C(=O)c1ccccc1Cl)OCCO2)c1ccc(Br)cc1`, 10.8%.

As for `Cc1nc2c(-c3ccccc3)c(C)nn2c(C)c1CCC(=O)NCc1ccccc1Cl`, the inhibition was -11.7%. With `CCC(=O)N1c2nc(-c3ccco3)nn2C2(CCCCC2)[C@@H]2CCCC[C@@H]21`, the inhibition was determined as 4.54%. As to `Cc1ccc(CSc2nc3cccnc3n2Cc2ccc(C(=O)NCCc3ccccc3)cc2)cc1`, the inhibition is 1.28%. As for `O=C(c1cccc(Br)c1)N1CCN(Cc2cc(=O)n3nc(-c4ccccc4)sc3n2)CC1`, the inhibition worked out at 3.09%.

Regarding `CCS(=O)(=O)N1CCc2cc(C(=O)Nc3cccc(Cl)c3C)ccc21`, the inhibition is -2.48%. Next, `CCOC(=O)c1c(C)[nH]c(C)c1C(=O)COC(=O)c1ccc(S(=O)(=O)C(F)F)cc1`: active: 38.6%.

As for `COc1ccc(N2CCN(C(CNC(=O)C(=O)NCCCN(C)C)c3cccnc3)CC2)cc1` (stereo unspecified), the inhibition was -0.0984%. On to `COc1ccccc1NCc1cccn1-c1nnc(N2CCOCC2)s1`, for which the inhibition is 2.2%.

On to `O=C(NC1CC1)C1CCN(C2CCN(C(=O)Cc3ccc(F)cc3)CC2)CC1`, for which the inhibition was active: 34.4%. As for `Cc1oc2ncn(C)c(=O)c2c1C(=O)NC(C)c1ccccc1` (stereo unspecified), the inhibition is -3.78%. For the molecule `O=C(CSC1=Nc2ccccc2N=C(c2ccc(F)cc2)C1)NCc1ccc(F)cc1`, the inhibition is 2.46%. Consider `Cc1ccc(C)c(CN2C(=O)CSc3ccc(C(=O)NCc4ccc(F)cc4)cc32)c1`, for which the inhibition is 3.47%.

As for `Cc1ccc(CSCc2ccc(C(=O)NCCc3ccc(Cl)cc3)o2)cc1`, the inhibition amounted to 0.424%. Next, `Cc1cc(C)cc(N2C(=O)CSC23C(=O)N(CC(=O)NCCc2ccccc2)c2ccccc23)c1` (stereo unspecified): -1.58%.

In the case of `CCOC(=O)C1=C(CS(=O)(=O)c2ccc(C)cc2)NC(=O)NC1c1ccc(C(C)C)cc1` (stereo unspecified), the inhibition was -17.6%. In the case of `CN(C(=O)c1ccc2c(c1)N(Cc1cccc(Cl)c1)C(=O)c1ccccc1S2=O)C1CCCCC1` (stereo unspecified), the inhibition was determined as 0.181%. In the case of `Cn1c(CN2CCCC2)nc2cc(NC(=O)COc3ccccc3)ccc21`, the inhibition was active: 47.5%.

As for `COc1ccc(NC(=O)CCS(=O)(=O)c2cccc3nonc23)cc1Cl`, the inhibition was found to be 6.81%. Regarding `CCc1nnc(SCc2nc(-c3ccc(OC)c(OC)c3)oc2C)c2cc3sc(C)cc3n12`, the inhibition was -10.7%.

Regarding `Cc1ccc(/C=C/c2onc(C)c2S(=O)(=O)N2CCC(C(=O)NCc3ccc(C)o3)CC2)cc1`, the inhibition is -4.74%. In the case of `O=C(N/N=C/c1cc(Br)c(Br)o1)c1cc2ccccc2o1`, the inhibition was active: 33.1%. In the case of `COc1cccc(C(=O)NC(=S)Nc2ccc(N3CCCC3)cc2)c1` it was active: 56.5%; in that of `COc1cccc(CNC(=O)Cc2ccc(NC(=O)N3CCCCc4ccccc43)cc2)c1OC`, -22.2%; in that of `Cc1cccc(NC(=O)CSc2nc(-c3ccccc3)cn2-c2ccccc2)c1C`, 4.41%.

`Cc1ccc(C)c(-n2c(CCC(=O)O)ccc2-c2ccc(Cl)cc2)c1`: the inhibition was 16.3%. As for `COc1ccc(Nc2ncc(C(=O)N3CCN(c4cccc(Cl)c4)CC3)c3ccccc23)cc1`, the inhibition was -2.65%. On to `COCCn1ccc2c(OCC(=O)Nc3cccc(OC)c3)cccc2c1=O`, for which the inhibition was 5.7%. Consider `COc1ccc(CNC(=O)c2c(O)nc3cc(C)ccn3c2=O)cc1`, for which the inhibition was determined as 13.2%. As for `Cc1nc(C)c(-c2ccc(SCC(=O)Nc3ccc(C)c(F)c3)nn2)s1`, the inhibition stood at 13.3%. As for `CCc1ccc2ncc3c(-c4ccc(F)cc4)nn(CC(=O)NCc4ccccc4)c3c2c1`, the inhibition came to 5.65%. In the case of `Cc1ccc(C(C)C)c(OCC(=O)Nc2ccc(C(=O)OC3CCCCC3)cc2)c1`, the inhibition is 24.1%.

On to `CCOc1ccc(-c2nc(SCC(=O)Nc3ccc(C)c(C)c3)n3[nH]c(=O)cc3n2)cc1`, for which the inhibition was -4.4%.

For `CC(C)CC(C(=O)NCc1ccc(F)cc1)N1Cc2ccccc2C1=O` (stereo unspecified), the inhibition was found to be 1.59%.

As to `COc1ccc(OCCCCn2c(-c3ccc(Cl)cc3)nc3ccccc3c2=O)cc1`, the inhibition worked out at 2.78%. Next, `CCCCCOC(=O)CSc1ncnc2c1sc1nc(N3CCOCC3)c3c(c12)CCCC3`: 6.76%.
